Patent publication EP2145538A1 (priority 2008, dated 2010)

System: Cellulase aus T. reesei
Conditions: result in words

OCCN1C[C@H](O)[C@@H](O)[C@H](O)[C@H]1CO [AI-2, Miglitol]
Hemmung der Cellulase-Aktivität: konnte weder die im Handel erhältlichen Amylasen bzw. Cellulasen der verschiedenen Mikroorganismen noch die von Fusarium graminearum in vitro oder in der Pflanze gebildeten Amylasen inhibieren
